Assay results: PubChem BioAssay AID1460 (National Center for Advancing Translational Sciences (NCATS), 2008)
Where “and” joins values, the source holds several entries; their conditions need not be identical. Equal values may be shown once. Hit rate of the full screen: of about 270,000 compounds, about 5,800 (2.1%) were called active. Inconclusive means that the source gave no clear call. Such entries were picked first, then a sample of the others. The call rests on the fitted dose curve; in most records, active means well fitted inhibition curve with a large enough effect; inconclusive means small, poorly fitted or top-dose-only effect; inactive means flat fitted curve, though single readings scatter. Where the call is inconclusive, the potency comes from a doubtful curve fit.
Further: nearly all actives have a fitted effect of over 55% in size.
On the % scale 0 is the no-effect control and ±100 the full control effect; potency means the concentration at half of the fitted maximal effect; tags describe the fitted curve by direction and shape.

Each compound was assayed against Microtubule-associated protein tau (Homo sapiens) (UniProt P10636) (assay: qHTS for Inhibitors of Tau Fibril Formation, Thioflavin T Binding). Conditions: recombinant tau K18 P301L (four-repeat tau fragment), heparin-induced fibrillization, ThT fluorescence; series mostly up to 57.4 µM; activity, negative = inhibition: at the top concentration.
Sequence of UniProt P10636 (P10636 whole entry, looked up, the tested form may be a part): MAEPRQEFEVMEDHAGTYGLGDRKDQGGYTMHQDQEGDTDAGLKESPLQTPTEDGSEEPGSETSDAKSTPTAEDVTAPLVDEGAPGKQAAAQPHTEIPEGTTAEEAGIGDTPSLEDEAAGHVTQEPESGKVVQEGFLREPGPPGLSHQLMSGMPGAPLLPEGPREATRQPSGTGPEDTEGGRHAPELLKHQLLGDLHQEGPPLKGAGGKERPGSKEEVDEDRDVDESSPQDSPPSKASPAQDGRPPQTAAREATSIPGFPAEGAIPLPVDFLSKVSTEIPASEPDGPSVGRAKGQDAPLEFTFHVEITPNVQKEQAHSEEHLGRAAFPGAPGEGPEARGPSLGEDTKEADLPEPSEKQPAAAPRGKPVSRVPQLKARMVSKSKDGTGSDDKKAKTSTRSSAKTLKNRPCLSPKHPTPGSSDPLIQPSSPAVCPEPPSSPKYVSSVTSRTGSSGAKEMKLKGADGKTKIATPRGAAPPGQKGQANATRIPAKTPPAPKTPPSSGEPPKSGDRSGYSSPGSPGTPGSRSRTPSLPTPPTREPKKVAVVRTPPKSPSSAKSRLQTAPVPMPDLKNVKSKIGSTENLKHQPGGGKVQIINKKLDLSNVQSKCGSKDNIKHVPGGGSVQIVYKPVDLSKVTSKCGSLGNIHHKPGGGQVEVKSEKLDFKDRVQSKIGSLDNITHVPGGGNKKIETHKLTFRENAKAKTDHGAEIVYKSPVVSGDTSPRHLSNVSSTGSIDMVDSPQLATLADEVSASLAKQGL
In short: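 K18 P301L tau (15 uM + 0.24 uM Alexa 594-tagged), heparin 20 uM, NaOAc pH 7, 6 h 37 C; ThT 30 uM, 1 h RT, ex 450/em 510 nm.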
With Cc1ccc(C(=O)N/N=C/c2cn(Cc3ccccc3)c3ccccc23)cn1 the Potency was inconclusive: 39.8 µM [inhibitor, single point].
With COc1ccc(/C=N/NC(=O)c2cc(C3CC3)[nH]n2)cc1OC the Potency was inconclusive: 22.4 µM [inhibitor, partial curve, poor fit].
With O=C(Nc1nc2cc3c(cc2s1)OCCO3)c1ccncc1 the Potency was inconclusive: 14.1 µM [inhibitor, partial curve].
With COc1ccccc1-c1cc2nc(C)c(CCC(=O)NCc3ccco3)c(C)n2n1 the “activity, negative = inhibition” value was inactive: -13.8%.
With CS(=O)(=O)NN1C(=O)c2ccccc2NC1c1c[nH]c2ccccc12 (centres undefined) the “activity, negative = inhibition” value was inactive: 0.169%.
With CCOc1ccc(C(=O)Nc2ccc(-c3cc4ccccc4oc3=O)cc2)cc1Br the Potency was inconclusive: 0.224 µM [inhibitor, full curve].
With Cn1cc(Cl)c(C(=O)NC(=S)Nc2sc3c(c2C#N)CCCCC3)n1 the Potency was inconclusive: 20 µM [inhibitor, partial curve].
For COc1cc([N+](=O)[O-])ccc1NC(=O)Oc1ccc(NC(C)=O)cc1, the “activity, negative = inhibition” value was inactive: -9.39%.
For CN(C)c1ccc(CNC(=O)C2CCN(c3nnc(-n4cccc4)s3)CC2)cc1, the Potency was inconclusive: 6.31 µM [inhibitor, partial curve].
For Cc1cnc(NC(=O)Nc2ccc(Cl)cc2)s1, the Potency was inconclusive: 14.1 µM [activator, partial curve].
For O=c1[nH][nH]c(C(F)(F)F)c1C=Nc1ccccc1Cl, the “activity, negative = inhibition” value was inactive: 9.34%.
In the case of CCn1c(O)c(N=NC(=O)Cn2ccc(C(F)(F)F)n2)c2ccccc21, the “activity, negative = inhibition” value is reported as inactive: 6.76%.
For COc1ccc(-c2cc(C(=O)Nc3cc(C(F)(F)F)ccc3Cl)no2)cc1, the “activity, negative = inhibition” value was inactive: -1.33%.
COc1ccccc1Cn1cc(C(=O)c2ccccc2)c(=O)c2cc(OC)c(OC)cc21 was tested, and the Potency was inconclusive: 25.1 µM [inhibitor, single point].
In the case of COc1ccc(-c2cc(C(F)(F)F)n3nc(C(=O)O)cc3n2)cc1OC, the Potency is reported as inconclusive: 31.6 µM [inhibitor, single point].
O=C(NNc1ccccc1[N+](=O)[O-])Nc1ccccc1 was tested, and the Potency was inconclusive: 20 µM [inhibitor, partial curve].
With Cc1c(OCC(=O)OC(C)C)ccc2c3c(c(=O)oc12)CCC3 the Potency was inconclusive: 3.98 µM [inhibitor, single point].
In the case of O=[N+]([O-])c1ccc2cn(-c3ccccc3)nc2c1, the Potency is reported as inconclusive: 8.91 µM [inhibitor, partial curve].
For Cc1cccc(C(=O)/C=C2/c3ccccc3CC(C)(C)N2C)c1, the Potency was inconclusive: 25.1 µM [inhibitor, partial curve, poor fit].
With O=C(CSc1ncnc2ccccc12)c1cccs1 the Potency was inconclusive: 28.2 µM [inhibitor, partial curve].
For N#Cc1cc2nc(O)c(O)nc2cc1[N+](=O)[O-], the Potency was inconclusive: 2 µM [inhibitor, full curve] and inconclusive: 6.31 µM [inhibitor, partial curve].
In the case of Cc1ccc(-n2c(NN)nc3ccccc3c2=O)c(C)c1, the Potency is reported as inconclusive: 22.4 µM [inhibitor, single point].
For CCOc1ccc2c(c1)-c1c(ssc1=S)C(C)(C)N2, the Potency was active: 12.6 µM.
COc1ccc(N2C(=O)/C(=C3/C=CC=CN3C)SC2=S)cc1 was tested, and the Potency was inconclusive: 25.1 µM [inhibitor, partial curve].
With Cc1ccc(C(=O)NNC(=O)Cc2csc(-c3csc(C)n3)n2)cc1 the “activity, negative = inhibition” value was inactive: -2.78%.
CCCn1c2ccccc2c2cnn(CC(=O)NCCc3ccc(S(N)(=O)=O)cc3)c(=O)c21 was tested, and the “activity, negative = inhibition” value was inactive: 9.16%.
In the case of Cc1ccc(S(=O)(=O)n2[nH]c(=O)cc2N)cc1, the Potency is reported as inconclusive: 17.8 µM [inhibitor, single point].
For C/C(=N\Nc1nc2ccccc2[nH]1)c1ccc2c(c1)OCCO2, the Potency was active: 14.1 µM.
For Cc1ccc(N2C(=O)C(Cl)=C(NCc3ccccc3)C2=O)c(C)c1, the Potency was inconclusive: 20 µM [inhibitor, partial curve].
In the case of COc1ccc(OC)c(N2C(=O)C(Cl)=C(N3CCOCC3)C2=O)c1, the Potency is reported as active: 14.1 µM.
CCOC(=O)Cc1csc(NC(=O)CSc2nc(C)cc(=O)[nH]2)n1 was tested, and the Potency was active: 28.2 µM.
With O=C(O/N=C/c1ccc2c(c1)OCO2)c1ccc([N+](=O)[O-])cc1 the Potency was inconclusive: 1 µM [inhibitor, full curve].
In the case of CCOC(=O)C1CCN(C(=O)CS(=O)Cc2nc(-c3ccc(C)cc3)oc2C)CC1 (centres undefined), the Potency is reported as inconclusive: 28.2 µM [inhibitor, partial curve].
For Cc1ccc(C)c(NC(=O)Nc2cc3c(cc2N2CCCCC2)n(C)c(=O)n3C)c1, the Potency was inconclusive: 12.6 µM [inhibitor, partial curve].
In the case of COc1cc(C2c3[nH]c4ccccc4c3CC3C(=O)N4C(Cc5c([nH]c6ccccc56)C4c4cc(OC)c(OC)c(OC)c4)C(=O)N32)cc(OC)c1OC (centres undefined), the activity, negative = inhibition is reported as inactive: -11.8% [at 11.5 µM].
Cc1cc(/C=N/NC(=O)c2ccncc2)c(C)n1-c1ccccc1 was tested, and the “activity, negative = inhibition” value was inactive: -16%.
In the case of CCOC(=O)c1sc2cc([N+](=O)[O-])cc(SCCO)c2c1N, the Potency is reported as active: 2.24 µM.
With N#C/C(=N\Nc1ccccc1)C(N)=S the Potency was inconclusive: 17.8 µM [inhibitor, partial curve].
In the case of COc1ccc(C2CC(c3cccs3)=Nc3ccccc3S2)cc1OC (centres undefined), the Potency is reported as inconclusive: 10 µM [inhibitor, partial curve].
In the case of C/C(=N\NC(=O)COc1ccc(C(C)(C)C)cc1)c1ccc(-n2ccnc2)cc1, the Potency is reported as inconclusive: 1.12 µM [inhibitor, full curve].
In the case of COc1ccc2nc3sc(C(=O)NCCc4ccc(Cl)cc4)cc3cc2c1, the Potency is reported as inconclusive: 0.501 µM [inhibitor, full curve, poor fit].
CCOC(=O)c1c(C)[nH]c(C(=O)CSc2nnc(-c3cccs3)n2Cc2ccccc2)c1C was tested, and the “activity, negative = inhibition” value was inactive: -15.5%.
With O=C(Cc1ccc(Cl)cc1)Nc1ccc(N2CCN(C(=O)c3ccco3)CC2)cc1 the Potency was inconclusive: 3.98 µM [inhibitor, full curve].
For O=c1[nH]c2ccc(NC(=S)Nc3ccccc3Cl)cc2[nH]1, the Potency was inconclusive: 22.4 µM [inhibitor, partial curve].
